# Reference: the supplement of paper PMC11417369
# ± gives the standard deviation of the averaged measurements. Some of the results follow.
# System: PfAP2-G AP2 domain (GST-tagged)
# Assay: gcPBM binding intensity (ln(normalized median fluorescence intensity)); higher = stronger DNA binding
# How it was run: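 Plasmodium falciparum DNA-binding domains carrying a GST tag were expressed in E. coli and applied for 1 h, at about 25 μg on average, to an Agilent 4 × 180k array. The array held primer-extended double-stranded 36-bp intergenic genomic probes together with negative controls, and binding took place in 1× PBS with 1% milk, 0.2 mg/ml BSA, 0.5% salmon testes DNA and 0.03% Triton X-100. An Alexa488 anti-GST antibody detected bound protein, and the array was scanned at 488 nm. Binding intensity is taken as the highest Masliner-normalised natural-log median intensity across replicate spots of either probe orientation.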
row,Sequence,gcPBM binding intensity (ln)
1,TTAATACATACATTCACACACACTAAATGTATATTT [CACACA_site4105],10.02 ± 0.057
2,TATGGAACACACCTTAATATGTGATAAAATATGATA [GTGCAC_negctrl_site718],10 ± 0.2
3,GTTATTAAATAATTCACACACATATATATATATATA [CACACA_site2260],10.2 ± 0.38
4,TATTCCTATATACAGCGTACAAAAAATAATATGTAT [XGTACX_site8112],11.2 ± 0.86
5,AAATATTATGTACGCACACACATTTTTGATATATAA [CACACA_site7755],11.5 ± 0.88
6,CGCAACGTGAAAATACGTACACATACATTTTTATAT [XGTACX_site330],11.7 ± 0.85
7,AAACAAGTAATTGTTATTATTATTATATTATTATTA [CACACA_negctrl_site402],9.45 ± 0.11
8,ATAAATTCTATGTATACACACATATATAATATATAT [CACACA_site2689],10.2 ± 0.11
9,AATAGGATATGGTACATTTTTTGTATACTTTTTGTT [CACACA_negctrl_site1804],10.7 ± 0.32
10,AATGAATATTAAAGGAGTACACATAATAAGTAAGAA [XGTACX_site7354],11.7 ± 0.99
11,TATATAAAAATATACACACACAAATGTATTTATATA [CACACA_site4284],9.765 ± 0.021
12,GAAAAAAAAAAAAATACACACAAATTGGTATAGAAT [CACACA_site380],9.86 ± 0.11
13,TTTTTTTTTTTTGAAGTGCATGTTACGATGAACAAA [GTGCAC_site9451],10.1 ± 0.54
14,CTAAAAAGAGAAGTGTGTCCTCAAATTAATATAATT [XGTACX_site1057],11.1 ± 0.64
15,TCTTATATAACGAAAGTAAAATAATATGCTAAGCAT [CACACA_negctrl_site668],9.59 ± 0.18
16,ATAAATAATTTATTCACACATACAAAAGTTTACAAA [CACACA_site5666],10.02 ± 0.092
17,TTATTAAATTCTTTATTTAGCATATACAATAAAAGA [CACACA_negctrl_site1420],9.72 ± 0.15
18,AAAATAGAGTTGAATGCACACATACAAATTTTTAGG [CACACA_site9188],9.985 ± 0.064
19,TATTATATTATACATACACACCCATATAATATGTTT [CACACA_site8191],10.12 ± 0.035
20,ATTGTTTTGTAATATGAAAAAATTGTGTAATGTGTC [CACACA_negctrl_site1510],10.2 ± 0.11
21,GATTATTTCTAAAAAGTGCATATTTAAAAATCTCCT,10 ± 0.16
22,AAAAAATAGAATATGGGTACTAAAAAGATACAAACA [XGTACX_site4464],11.1 ± 0.53
23,AAATTCGTAATAATGTGTACATAACTATACATAATT [XGTACX_site1717],11.6 ± 1.1

row,Sequence,gcPBM binding intensity (ln)
1,ATTTATATGAAAATATGTACTTATATAAATTTATTT [XGTACX_site53],11.2 ± 0.81
2,TGGTTTATTTATTAAGTGCATAAATGCAATATATAT,9.935 ± 0.092
3,TATTATATATTTAATAGTACATATAAAATAATAAGG [XGTACX_site4823],11.1 ± 0.7
4,TATACAGATGGACACACACACATAAATAAATATATA [CACACA_site4863],11.1 ± 0.69
5,TTTATTTTTAACAGTGCACACATAACTTAATTATAT [CACACA_site8681],10.7 ± 0.22
6,TACTATAACCCACATACACACAAAAAAAAAAAAAAA [CACACA_site4454],10.1 ± 0.51
7,TGTCACCTATTTTTTTGTACGTATGTCCATTTTTTT [XGTACX_site4368],11.5 ± 0.86
8,ATTACAACCACATTGACATGCAAATGTAGAGGGGGA [TGCATGCA_site694],11.1 ± 0.71
9,TATAAATATGTATATGCATGTGGAATATATAATTAA [TGCATGCA_site226],10.03 ± 0.078
10,AAATAAAACAGACACACACACACATACACAAAAAAA [CACACA_site7753],10.2 ± 0.23
11,ATATGAGTATAAAAATGTACGGAGCAACTAAATATA [XGTACX_site620],10.7 ± 0.28
12,TATTCTTACATCACCTCACACATTTAATATTCCTTA [CACACA_site4693],9.81 ± 0.13
13,GTATTATTATTTTATGCATGTACATTGAATTATATT [TGCATGCA_site34],11.2 ± 0.81
14,ATATATATATATCAGAGTACATTCTTTAAAATATAT [XGTACX_site5915],11.4 ± 0.86
15,AGATTTTGAAATTATAAAAAAATTTCACTTCATTTA [CACACA_negctrl_site888],9.46 ± 0.18
16,TTTATGTAATATACATGTACAGAATATAAAATATAT [XGTACX_site6906],11 ± 0.54
17,TTAACTTCTTTAAAATGTACATATATTAAATAATAA [XGTACX_site3391],11 ± 0.59
18,AAAAAATATAGATGCACACACAAAAAAACAAATTAA [CACACA_site6718],10.1 ± 0.19
19,TTTTAATTAGAAATCATACACACATATATATATATA [CACACA_site174],9.99 ± 0.32
20,ATTTTTAAAATAAATACATGCATATATTTATATGTT [TGCATGCA_site394],9.64 ± 0.14
21,TGTGTAATACATAATACACACATGTATATGTCGCAT [CACACA_site4757],10.12 ± 0.092
22,TTATTAAAGTATAACTGTACATGCGAGTAAAAGAAT [XGTACX_site7388],11.2 ± 0.65
